Results on one molecule are retold here after publication PMC10920896 (2024).

Experiment [1] deals with T1, biotinylated murine gp130_(P496L) (D1-D6) with C-terminal biotin acceptor peptide and hexa-histidine tag (murine, UniProt Q00560 23-617, P496L, biotin on the C-terminal biotin acceptor peptide (in vitro, BirA)). Description: SPR; equilibrium fit. A general note: In SPR one partner is held on a chip, and binding of the other changes the refractive index at the surface.
The target in experiment [2] is T2, biotinylated murine wildtype gp130 (D1-D6) with C-terminal biotin acceptor peptide and hexa-histidine tag (murine, UniProt Q00560 23-617, biotin on the C-terminal biotin acceptor peptide (in vitro, BirA)).
T2 chain: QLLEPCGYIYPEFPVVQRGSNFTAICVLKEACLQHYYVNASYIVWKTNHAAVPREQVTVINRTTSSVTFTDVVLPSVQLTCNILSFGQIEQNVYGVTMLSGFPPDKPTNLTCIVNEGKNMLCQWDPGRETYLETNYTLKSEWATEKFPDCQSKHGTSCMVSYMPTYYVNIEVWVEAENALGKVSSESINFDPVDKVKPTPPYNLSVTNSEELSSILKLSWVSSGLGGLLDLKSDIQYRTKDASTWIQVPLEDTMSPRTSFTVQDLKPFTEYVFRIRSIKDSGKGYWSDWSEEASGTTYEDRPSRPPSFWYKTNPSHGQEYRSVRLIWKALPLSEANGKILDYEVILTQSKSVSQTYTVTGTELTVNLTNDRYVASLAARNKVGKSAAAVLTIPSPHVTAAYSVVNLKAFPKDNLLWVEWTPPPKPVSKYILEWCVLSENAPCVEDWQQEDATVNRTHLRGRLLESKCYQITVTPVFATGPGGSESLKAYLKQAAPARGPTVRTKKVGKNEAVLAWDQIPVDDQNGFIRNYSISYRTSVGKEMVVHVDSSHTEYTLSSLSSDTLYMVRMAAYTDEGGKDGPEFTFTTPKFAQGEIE
Description: SPR; equilibrium fit.

For experiment [3], the target named is T1, biotinylated murine gp130_(P496L) …. Briefly: SPR.
Experiment [4] concerns the target T2, biotinylated murine wildtype gp130 …. Briefly: SPR.
The target in experiment [5] is T1, biotinylated murine gp130_(P496L) …. Briefly: SPR; kinetic fit.
Experiment [6] deals with T2, biotinylated murine wildtype gp130 …. Description: SPR; kinetic fit.

B1: HypIL-6 (human IL-6 fused by a short linker to domains D2 and D3 of IL-6Rα, single chain) (other)
chain: EEPQLSCFRKSPLSNVVCEWGPRSTPSLTTKAVLLVRKFQNSPAEDFQEPCQYSQESQKFSCQLAVPEGDSSFYIVSMCVASSVGSKFSKTQTFQGCGILQPDPPANITVTAVARNPRWLSVTWQDPHSWNSSFYRLRFELRYRAERSKTFTTWMVKDLQHHCVIHDAWSGLRHVVQLRAQEEFGQGEWSEWSPEAMGT[about 200 residues omitted here]
Turning to B1, the Kd (in general, the equilibrium constant for the complex coming apart) in experiment [1] is 5.8 nM; in experiment [2], 5.5 nM; in experiment [5], 0.31 nM; in experiment [6] it was 0.37 nM. The off-rate constant (koff) – broadly, a measure of how fast the partners let go of each other – came to 0.00079 s⁻¹ in experiment [3] and 0.00097 s⁻¹ in experiment [4].
